The source of these data is paper PMC10911177, “Exploring the ATG9A interactome uncovers interaction with VPS13A” (Journal of cell science, 2024).

Protein sequences, listed by entry. Tags and fused reporters are not part of them. Lines headed by an entry give the natural chain unless they say otherwise; changes in a name come on top. Residues count along the entry.
UniProt Q96RL7: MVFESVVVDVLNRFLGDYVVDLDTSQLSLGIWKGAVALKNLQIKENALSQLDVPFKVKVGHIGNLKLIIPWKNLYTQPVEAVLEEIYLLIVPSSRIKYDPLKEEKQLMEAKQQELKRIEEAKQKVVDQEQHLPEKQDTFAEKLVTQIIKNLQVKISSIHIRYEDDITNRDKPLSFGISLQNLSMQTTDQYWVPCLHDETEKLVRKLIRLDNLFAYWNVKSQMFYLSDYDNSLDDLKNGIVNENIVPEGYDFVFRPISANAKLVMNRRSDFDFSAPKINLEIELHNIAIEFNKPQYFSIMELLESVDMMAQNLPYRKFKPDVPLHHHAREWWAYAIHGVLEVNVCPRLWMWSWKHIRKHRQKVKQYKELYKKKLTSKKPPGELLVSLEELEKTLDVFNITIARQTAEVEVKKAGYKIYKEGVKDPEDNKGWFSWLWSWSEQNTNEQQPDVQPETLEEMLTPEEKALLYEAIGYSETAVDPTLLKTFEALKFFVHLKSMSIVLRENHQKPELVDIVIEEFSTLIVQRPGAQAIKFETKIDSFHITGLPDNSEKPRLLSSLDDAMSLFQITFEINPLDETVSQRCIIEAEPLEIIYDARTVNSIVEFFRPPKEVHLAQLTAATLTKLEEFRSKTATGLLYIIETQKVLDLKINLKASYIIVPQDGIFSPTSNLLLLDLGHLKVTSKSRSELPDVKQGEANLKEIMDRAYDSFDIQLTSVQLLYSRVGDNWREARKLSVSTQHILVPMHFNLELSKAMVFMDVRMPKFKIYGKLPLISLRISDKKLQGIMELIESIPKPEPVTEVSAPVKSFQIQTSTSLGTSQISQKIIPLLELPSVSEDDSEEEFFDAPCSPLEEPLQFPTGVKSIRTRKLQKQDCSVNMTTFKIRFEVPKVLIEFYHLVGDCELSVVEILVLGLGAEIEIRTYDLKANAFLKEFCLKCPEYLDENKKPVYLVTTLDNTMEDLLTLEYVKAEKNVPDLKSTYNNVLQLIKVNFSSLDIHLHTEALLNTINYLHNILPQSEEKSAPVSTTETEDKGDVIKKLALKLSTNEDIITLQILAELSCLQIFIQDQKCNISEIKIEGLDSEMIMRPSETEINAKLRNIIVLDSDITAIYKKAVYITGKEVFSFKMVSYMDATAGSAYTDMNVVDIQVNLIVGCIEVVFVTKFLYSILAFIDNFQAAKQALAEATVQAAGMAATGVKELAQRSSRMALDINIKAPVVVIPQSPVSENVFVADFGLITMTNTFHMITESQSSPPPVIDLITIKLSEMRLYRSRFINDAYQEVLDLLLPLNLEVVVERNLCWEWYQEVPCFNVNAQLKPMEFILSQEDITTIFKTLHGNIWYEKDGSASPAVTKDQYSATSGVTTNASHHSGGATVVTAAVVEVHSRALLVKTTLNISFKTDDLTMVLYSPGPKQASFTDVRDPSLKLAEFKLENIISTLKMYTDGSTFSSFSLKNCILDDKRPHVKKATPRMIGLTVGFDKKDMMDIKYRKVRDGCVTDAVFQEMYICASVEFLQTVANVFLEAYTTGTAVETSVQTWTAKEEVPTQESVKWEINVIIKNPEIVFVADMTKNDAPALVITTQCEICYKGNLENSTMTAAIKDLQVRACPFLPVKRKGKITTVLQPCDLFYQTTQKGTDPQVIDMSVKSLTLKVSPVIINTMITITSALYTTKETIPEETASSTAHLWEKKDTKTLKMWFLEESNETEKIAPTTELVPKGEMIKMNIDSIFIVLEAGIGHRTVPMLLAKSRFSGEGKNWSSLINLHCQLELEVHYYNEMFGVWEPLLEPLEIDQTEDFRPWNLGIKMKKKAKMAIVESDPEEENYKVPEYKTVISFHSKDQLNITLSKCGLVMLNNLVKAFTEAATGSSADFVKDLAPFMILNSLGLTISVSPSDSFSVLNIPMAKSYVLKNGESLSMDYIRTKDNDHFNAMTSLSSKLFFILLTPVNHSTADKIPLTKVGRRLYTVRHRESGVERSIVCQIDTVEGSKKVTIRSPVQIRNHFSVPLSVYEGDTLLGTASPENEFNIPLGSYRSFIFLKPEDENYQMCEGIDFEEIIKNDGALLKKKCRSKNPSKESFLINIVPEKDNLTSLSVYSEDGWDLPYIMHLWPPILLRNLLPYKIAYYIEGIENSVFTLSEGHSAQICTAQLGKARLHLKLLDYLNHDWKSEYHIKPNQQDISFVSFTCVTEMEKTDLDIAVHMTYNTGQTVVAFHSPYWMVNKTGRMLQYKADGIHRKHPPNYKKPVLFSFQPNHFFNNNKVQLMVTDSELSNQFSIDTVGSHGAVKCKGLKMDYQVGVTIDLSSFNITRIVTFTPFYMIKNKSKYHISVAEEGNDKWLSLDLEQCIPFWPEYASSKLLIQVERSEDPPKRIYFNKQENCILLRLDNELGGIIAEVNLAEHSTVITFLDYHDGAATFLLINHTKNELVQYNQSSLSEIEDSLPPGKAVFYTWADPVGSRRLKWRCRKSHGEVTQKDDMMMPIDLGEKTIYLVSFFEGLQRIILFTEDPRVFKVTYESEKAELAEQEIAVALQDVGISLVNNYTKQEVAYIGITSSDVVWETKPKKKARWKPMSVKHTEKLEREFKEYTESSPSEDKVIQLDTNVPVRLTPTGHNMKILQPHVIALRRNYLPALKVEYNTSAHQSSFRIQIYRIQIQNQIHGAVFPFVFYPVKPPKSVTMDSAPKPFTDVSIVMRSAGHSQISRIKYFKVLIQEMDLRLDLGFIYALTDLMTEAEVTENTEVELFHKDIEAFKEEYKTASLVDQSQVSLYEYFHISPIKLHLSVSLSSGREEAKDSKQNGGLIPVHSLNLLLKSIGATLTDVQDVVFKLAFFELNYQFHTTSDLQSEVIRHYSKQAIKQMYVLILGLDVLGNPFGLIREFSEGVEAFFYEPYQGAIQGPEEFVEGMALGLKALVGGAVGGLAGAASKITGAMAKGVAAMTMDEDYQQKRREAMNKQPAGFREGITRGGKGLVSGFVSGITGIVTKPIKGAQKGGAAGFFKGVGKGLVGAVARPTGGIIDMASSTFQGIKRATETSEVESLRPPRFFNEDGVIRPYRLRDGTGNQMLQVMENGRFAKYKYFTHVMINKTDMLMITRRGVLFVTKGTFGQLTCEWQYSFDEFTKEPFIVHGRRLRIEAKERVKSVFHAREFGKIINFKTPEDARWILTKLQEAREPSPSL
GFP−VPS13A fragment 1: residues 1-1372 of Q96RL7
GFP−VPS13A fragment 3: residues 1858-2553 of Q96RL7
GFP−VPS13A fragment 4: residues 2554-3174 of Q96RL7
UniProt O95573: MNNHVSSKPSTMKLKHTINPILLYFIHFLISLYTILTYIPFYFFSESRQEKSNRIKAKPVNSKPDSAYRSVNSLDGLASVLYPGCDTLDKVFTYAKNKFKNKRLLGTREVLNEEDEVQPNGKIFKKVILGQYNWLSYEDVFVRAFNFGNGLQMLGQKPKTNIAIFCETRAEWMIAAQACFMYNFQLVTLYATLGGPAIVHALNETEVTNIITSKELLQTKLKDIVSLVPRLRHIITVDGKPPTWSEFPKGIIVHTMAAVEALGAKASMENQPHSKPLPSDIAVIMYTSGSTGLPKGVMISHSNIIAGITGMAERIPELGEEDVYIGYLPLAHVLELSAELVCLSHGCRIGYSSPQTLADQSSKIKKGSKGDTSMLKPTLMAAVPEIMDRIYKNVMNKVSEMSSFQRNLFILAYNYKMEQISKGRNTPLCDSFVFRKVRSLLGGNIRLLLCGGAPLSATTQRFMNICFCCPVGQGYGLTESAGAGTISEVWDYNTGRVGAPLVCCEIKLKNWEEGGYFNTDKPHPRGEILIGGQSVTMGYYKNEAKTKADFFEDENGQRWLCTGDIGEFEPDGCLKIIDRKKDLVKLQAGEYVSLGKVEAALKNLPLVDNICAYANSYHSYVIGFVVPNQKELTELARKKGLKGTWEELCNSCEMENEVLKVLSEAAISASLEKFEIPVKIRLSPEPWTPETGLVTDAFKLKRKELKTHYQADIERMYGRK

No constants are given. Whether binding was seen depends on the method and setting. In cells and extracts the contact can be indirect. Some results given as binding are weak or reduced against the parent protein; the word gives no strength. For part of these data: Tags and fused reporters may be left off the sequences shown.

One test has as its target T1, GFP−ATG9A C-Term (UniProt Q7Z3C6).
T1 sequence: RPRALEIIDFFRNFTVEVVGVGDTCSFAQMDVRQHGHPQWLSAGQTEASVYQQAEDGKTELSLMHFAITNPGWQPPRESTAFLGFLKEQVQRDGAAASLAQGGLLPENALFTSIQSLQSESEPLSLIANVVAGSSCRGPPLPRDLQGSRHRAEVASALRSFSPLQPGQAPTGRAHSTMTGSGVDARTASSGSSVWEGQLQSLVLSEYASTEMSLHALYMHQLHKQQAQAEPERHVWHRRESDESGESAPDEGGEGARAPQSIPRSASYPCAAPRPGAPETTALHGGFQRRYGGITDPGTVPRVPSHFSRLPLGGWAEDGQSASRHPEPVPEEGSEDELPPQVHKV
The test is described as follows: co-IP; cells expressing tagged proteins; GFP-TRAP or RFP-Trap beads overnight at 4°C, four washes with TNTE or LMNG buffer; immunoblot. For orientation: A western blot detects proteins with antibodies after separation by electrophoresis.

Another test has as its target T2, GFP−ATG9A FL (UniProt Q7Z3C6).
T2 sequence: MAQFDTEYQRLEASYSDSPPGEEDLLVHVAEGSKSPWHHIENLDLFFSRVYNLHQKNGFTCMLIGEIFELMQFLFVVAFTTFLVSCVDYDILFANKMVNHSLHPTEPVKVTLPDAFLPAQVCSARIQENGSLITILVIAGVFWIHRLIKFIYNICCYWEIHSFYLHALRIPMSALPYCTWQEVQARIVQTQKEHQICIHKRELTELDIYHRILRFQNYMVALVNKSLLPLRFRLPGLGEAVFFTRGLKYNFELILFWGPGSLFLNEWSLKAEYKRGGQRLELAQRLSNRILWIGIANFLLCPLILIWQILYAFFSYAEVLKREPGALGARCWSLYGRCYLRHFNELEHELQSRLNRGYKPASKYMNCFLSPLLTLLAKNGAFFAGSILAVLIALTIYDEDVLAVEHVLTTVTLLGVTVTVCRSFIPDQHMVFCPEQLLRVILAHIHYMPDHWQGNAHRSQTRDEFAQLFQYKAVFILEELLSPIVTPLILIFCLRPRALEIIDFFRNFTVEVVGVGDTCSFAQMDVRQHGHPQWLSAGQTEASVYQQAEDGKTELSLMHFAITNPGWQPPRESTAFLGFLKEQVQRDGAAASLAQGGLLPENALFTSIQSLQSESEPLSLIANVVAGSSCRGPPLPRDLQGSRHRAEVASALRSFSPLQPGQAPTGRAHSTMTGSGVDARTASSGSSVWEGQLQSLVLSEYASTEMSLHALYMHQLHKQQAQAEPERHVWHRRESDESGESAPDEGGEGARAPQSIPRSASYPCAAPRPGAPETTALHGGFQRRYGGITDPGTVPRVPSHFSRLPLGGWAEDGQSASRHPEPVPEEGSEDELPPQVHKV
The description is as above.

A further test deals with T3, GFP−ATG9A ΔC (UniProt Q7Z3C6).
T3 sequence: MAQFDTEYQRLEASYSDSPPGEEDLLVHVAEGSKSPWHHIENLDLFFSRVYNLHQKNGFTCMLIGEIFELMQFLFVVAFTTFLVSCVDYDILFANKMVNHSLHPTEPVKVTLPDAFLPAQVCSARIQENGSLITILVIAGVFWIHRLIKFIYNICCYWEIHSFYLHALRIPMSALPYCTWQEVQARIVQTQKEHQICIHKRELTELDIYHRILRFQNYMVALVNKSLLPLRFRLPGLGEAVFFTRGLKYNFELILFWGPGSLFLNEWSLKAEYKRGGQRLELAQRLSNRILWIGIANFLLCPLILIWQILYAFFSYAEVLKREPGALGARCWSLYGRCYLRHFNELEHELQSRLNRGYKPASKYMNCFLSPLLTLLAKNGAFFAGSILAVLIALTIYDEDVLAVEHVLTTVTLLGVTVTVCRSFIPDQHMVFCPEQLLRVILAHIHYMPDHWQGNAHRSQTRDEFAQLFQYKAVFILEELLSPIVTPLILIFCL
Described as above.

Test [1] deals with T4, ATG9A (endogenous) (human (endogenous in HEK293A)) (UniProt Q7Z3C6).
T4 sequence: T2 sequence
Description: co-IP; endogenous ATG9A immunoprecipitated with anti-ATG9A antibodies on protein A Dynabeads; immunoblot for endogenous ACSL3.

The target of another test is VPS13CμClover (UniProt Q709C8). The test is described as follows: co-IP; cells expressing tagged proteins; GFP-TRAP or RFP-Trap beads overnight at 4°C, four washes with TNTE or LMNG buffer; immunoblot.
A further test has as its target VPS13AμmCherry (human) (UniProt Q96RL7). The description is as above.
The target of test [2] is GFP−VPS13A fragment 4 (human) (UniProt Q96RL7). The description is as above.
For test [3], the target named is GFP−VPS13A fragment 3 (human) (UniProt Q96RL7). The test is described as above.
Test [4] has as its target GFP−VPS13A fragment 1 (human) (UniProt Q96RL7). Described as above.

For the molecule “3×Flag−VPS13A full length (from UniProt Q96RL7 1-3174)”, the binding result with GFP−ATG9A C-Term, with GFP−ATG9A FL and with GFP−ATG9A ΔC was “binds” throughout.
Consider “ACSL3 (endogenous) (from UniProt O95573 1-720)”, for which the binding entry in test [1] is “binds”.

B1: ATG9A (endogenous) (protein, UniProt Q7Z3C6 1-839)
chain: T2 sequence
Consider B1, for which the binding result with VPS13CμClover and in the test with VPS13AμmCherry (human) was “binds” each time.

B2: 3×Flag−ATG9A (protein, UniProt Q7Z3C6 1-839)
chain: T2 sequence
Turning to B2, the figures for the binding result in test [2], in [3] and in test [4] were “binds”, “no binding” and “binds”, respectively.
